Laboratory results as given in PubChem BioAssay AID493208 (National Center for Advancing Translational Sciences (NCATS), 2011).
Hit rate of the full screen: of about 44,000 compounds, about 340 (0.77%) were called active. Roughly 5% stayed inconclusive and do not appear here. The call rests on the fitted dose curve; in most records, active means well fitted inhibition curve with a large enough effect; inconclusive means small, poorly fitted or top-dose-only effect; inactive means flat fitted curve, though single readings scatter. The list shows a part of the results.

Assay: Acumen qHTS Assay for Inhibitors of the mTORC1 Signaling Pathway in MEF (Tsc2-/-, p53-/-) Cells: Sytravon;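 further: plate controls were DMSO for no effect and rapamycin for full effect; nearly all actives have a fitted effect of over 50% in size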
Conditions: phospho-rpS6 immunofluorescence/PI, 24 h; series mostly up to 38.3 µM; activity change, negative = inhibition: at the top concentration
Outline: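 Tsc2-/-, p53-/- MEFs (empty-vector stable line) in DMEM + 10% FBS were treated with compounds 24 h at 37 degree Celsius, fixed, and immunostained for phospho-rpS6 (Alexa-488) with propidium iodide counterstain. Laser-scanning cytometry gave % positive cells, normalized against 7.5 nM rapamycin and DMSO.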

Activity change, negative = inhibition, inactive:
O=C(CSc1nc2ccsc2c(=O)n1-c1ccc(Cl)cc1)NCc1ccc(Cl)cc1 -2.95%, CCOc1ccc(NC(=O)c2cc3cc(C)ccc3n2C)cc1 0.102%, CCC(=O)N1CCc2cc(S(=O)(=O)NCCC(=O)Nc3ccc(CC)cc3)ccc21 0.657%, COc1ccccc1NC(=O)CSc1oc(-c2ccco2)nc1S(=O)(=O)c1ccc(C)cc1 -13.3%, CCOc1ccc(NC(=O)c2oc3ccccc3c2NC(=O)C(C)(C)C)cc1 -5.77%, O=C(CC1N=C2c3ccccc3N=C(SCC(=O)Nc3ccc(F)cc3)N2C1=O)NCc1ccco1 (configuration not stated) 3.7%, CCOc1ccc2nc(N3CCCC(C(=O)Nc4ccc(OC)cc4)C3)sc2c1 (configuration not stated) -9.87%, COc1ccc(CCNC(=O)c2c(O)nc3ccccn3c2=O)cc1OC 1.57%, COc1cc(Nc2ncc3c(n2)CCN(Cc2ccc(OC(C)C)c(OC)c2)C3)cc(OC)c1 0%, Cc1ccc(C(=O)Nc2nnc(S(=O)(=O)N(C)Cc3ccc(Cl)cc3)s2)cc1 0.287%, CCc1nn2c(=O)cc(COC(=O)c3ccc(NC(=O)COc4ccccc4C)cc3)nc2s1 0%, COc1ccc(NC(=O)c2csnn2)cc1Cl -8.04%, O=C(c1noc2c1CCCCC2)N1CCN(c2cccc(Cl)c2)CC1 1.82%, O=C(Cn1ncc2c3ccccc3n(Cc3ccccc3F)c2c1=O)N1CCCCCC1 -0.751%, CCN1CCN(c2nnc(-n3cccc3C(=O)NCc3ccccc3OC)s2)CC1 5.68%, COc1ccc(NC(=O)C2CCN(C3=NS(=O)(=O)C(c4ccc(C)c(C)c4)=C3C)CC2)c(OC)c1 -19.4%, COc1cccc(CNC(=O)C2CCN(S(=O)(=O)c3c(C)noc3/C=C/c3cccs3)CC2)c1 3.32%, O=C(NCCc1csc(-c2cccc(F)c2)n1)C(=O)Nc1cc(F)ccc1F 0.473%, Cc1ccc(C)c(NC(=O)Cc2coc3cc(C)cc(C)c23)c1 -7.72%, O=C(c1cc2ccc3cccnc3c2[nH]1)N1CCCCC1 3.74%, COc1ccc(C)cc1NS(=O)(=O)c1cnc(N)nc1 0%, CCOC(=O)c1sc2ncn(CC(=O)Nc3cc(Cl)ccc3C)c(=O)c2c1C -5.84%, CCOC(=O)c1cc2c(=O)n3ccccc3nc2n(CC2CCCO2)c1=NC(=O)c1ccccc1Br (configuration not stated) 0.0172%, CC(=O)Nc1cccc(NC(=O)CSc2nccn2Cc2ccc3c(c2)OCO3)c1 -0.181%, CC(=O)c1ccc(N2CCN(C(=O)c3cc(S(=O)(=O)N4CCCCCC4)cn3C)CC2)cc1 -10.1%, Cc1cccc(NC(=O)CSc2ccc(-c3sc(-c4ccccc4)nc3C)nn2)c1C 0.145%, Cc1cc(C(=O)Nc2c(C)cccc2C)n(-c2ccccc2)n1 -5.04%
